Among all 220,000 compounds or so, about 5,700 (2.6%) were called active. The inconclusive results got no clear call from the source; some entries with a clear call stand among them for comparison. The call rests on the fitted dose curve; in most records, active means well fitted inhibition curve with a large enough effect; inconclusive means small, poorly fitted or top-dose-only effect; inactive means no such curve, though single readings can be large or run the other way. Potencies of inconclusive entries are doubtful fits and often do not repeat.
These compounds were tested against Lysine-specific demethylase 5B (Homo sapiens) (UniProt Q9UGL1) (assay: Primary screen for KDM5B Histone Demethylases FDH-coupled qHTS). Settings: FDH-coupled NADH fluorescence (FDH is formaldehyde dehydrogenase); series mostly up to 57.7 µM.
Chain of UniProt Q9UGL1 (Q9UGL1 whole entry, looked up): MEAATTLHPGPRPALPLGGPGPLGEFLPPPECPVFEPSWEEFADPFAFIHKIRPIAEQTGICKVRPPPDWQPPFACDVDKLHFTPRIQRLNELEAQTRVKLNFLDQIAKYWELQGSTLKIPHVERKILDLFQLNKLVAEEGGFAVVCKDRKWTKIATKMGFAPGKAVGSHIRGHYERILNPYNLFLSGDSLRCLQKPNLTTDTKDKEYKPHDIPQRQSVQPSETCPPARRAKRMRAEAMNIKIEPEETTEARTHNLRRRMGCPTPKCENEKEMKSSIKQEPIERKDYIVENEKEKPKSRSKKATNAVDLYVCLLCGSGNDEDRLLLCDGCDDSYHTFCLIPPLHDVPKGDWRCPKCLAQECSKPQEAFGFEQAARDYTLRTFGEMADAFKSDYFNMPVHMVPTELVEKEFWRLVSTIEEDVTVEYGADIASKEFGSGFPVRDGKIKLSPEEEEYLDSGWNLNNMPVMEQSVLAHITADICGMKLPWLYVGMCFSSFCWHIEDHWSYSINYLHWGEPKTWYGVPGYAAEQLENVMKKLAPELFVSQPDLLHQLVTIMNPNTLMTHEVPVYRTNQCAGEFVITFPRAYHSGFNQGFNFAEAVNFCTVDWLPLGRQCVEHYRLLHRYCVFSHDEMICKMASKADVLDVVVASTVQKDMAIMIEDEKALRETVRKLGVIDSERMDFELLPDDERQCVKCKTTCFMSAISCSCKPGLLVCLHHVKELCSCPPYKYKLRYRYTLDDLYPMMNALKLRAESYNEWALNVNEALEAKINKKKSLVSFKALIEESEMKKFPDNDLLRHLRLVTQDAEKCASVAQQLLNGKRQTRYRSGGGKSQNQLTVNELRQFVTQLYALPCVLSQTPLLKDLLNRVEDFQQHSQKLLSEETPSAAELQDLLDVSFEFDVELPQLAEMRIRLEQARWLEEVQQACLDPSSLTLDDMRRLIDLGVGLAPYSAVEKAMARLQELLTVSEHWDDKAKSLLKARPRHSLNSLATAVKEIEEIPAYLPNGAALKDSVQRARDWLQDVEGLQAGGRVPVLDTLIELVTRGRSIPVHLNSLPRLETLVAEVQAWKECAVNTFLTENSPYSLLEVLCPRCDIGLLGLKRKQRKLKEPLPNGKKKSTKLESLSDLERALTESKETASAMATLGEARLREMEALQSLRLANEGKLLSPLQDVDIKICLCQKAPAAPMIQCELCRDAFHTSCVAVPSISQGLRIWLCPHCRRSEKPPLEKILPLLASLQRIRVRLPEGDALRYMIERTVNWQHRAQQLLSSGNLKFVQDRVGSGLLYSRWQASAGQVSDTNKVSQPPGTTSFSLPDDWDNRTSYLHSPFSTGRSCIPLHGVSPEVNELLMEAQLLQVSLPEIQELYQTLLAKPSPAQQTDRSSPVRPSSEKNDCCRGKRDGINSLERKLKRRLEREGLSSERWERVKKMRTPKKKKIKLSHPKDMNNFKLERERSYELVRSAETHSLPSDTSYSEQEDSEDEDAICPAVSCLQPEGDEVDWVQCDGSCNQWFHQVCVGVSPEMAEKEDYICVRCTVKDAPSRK
Method in brief: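 qHTS format, multiple compound concentrations. Buffer 50 mM HEPES pH 7.5/0.01% Tween-20; 200 nM KDM5BΔAP final; 10 min compound preincubation; substrate-mix levels 12.5 µM peptide, 25 µM α-KG, 0.25 mM NAD⁺; 30 min RT; ΔRFU.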
In the case of `CCN1CCN(C(=O)Cn2c(-c3cccs3)cc3ccccc32)CC1`, the Potency is reported as inconclusive: 31.6 µM [inhibitor, partial curve, poor fit].
In the case of `Cc1ccc(NC(=O)COC(=O)c2cc(=O)[nH]c3ccccc23)cc1`, the Potency is reported as “inactive”.
With `Nc1nnnn1NCc1ccc(-c2ccc(F)c(Cl)c2)o1` the Potency was inconclusive: 22.4 µM [inhibitor, single point].
For `O=C(NCc1ccccc1)C1CCN(C(=O)/C=C/c2cccc(C(F)(F)F)c2)CC1`, the Potency was “inactive”.
For `COc1ccc(/C(C)=C(\C#N)c2nc3ccccc3[nH]2)cc1`, the Potency was inconclusive: 25.1 µM [inhibitor, single point].
For `N#Cc1nc(-c2cccs2)oc1N1CCN(c2ccccc2)CC1`, the Potency was inconclusive: 1.78 µM [inhibitor, full curve, poor fit].
With `CC(=O)N/N=C(/C)c1ccc(NC(=O)C2CC2)cc1` the Potency was inconclusive: 39.8 µM [inhibitor, partial curve, poor fit].
For `C[S+](=O)([O-])NC1CC2(CCN(C(=O)Cc3c[nH]c4ccccc34)CC2)c2ccccc21` (configuration not stated), the Potency was “inactive”.
`CCc1ccc(CN(Cc2ccco2)C(=O)COc2ccc(Cl)c(C)c2)cc1` was tested, and the Potency was inconclusive: 2 µM [inhibitor, full curve, poor fit].
For `Cc1nnc(-c2cc(-c3ccc(CO)cc3)ccn2)n1CCN1CCOCC1`, the Potency was inconclusive: 28.2 µM [inhibitor, partial curve, poor fit].
With `CCN(CC)c1nc2c(S(=O)(=O)c3cccc(Cl)c3)nnn2c2ccsc12` the Potency was inconclusive: 35.5 µM [inhibitor, partial curve, poor fit].
In the case of `Cc1cc(NC(=O)C2CCCN(S(=O)(=O)c3ccc4[nH]c(=O)oc4c3)C2)ccc1Br` (configuration not stated), the Potency is reported as “inactive”.
With `CCC(C)Nc1oc(-c2ccc(COc3ccc(Cl)cc3)o2)nc1C#N` (configuration not stated) the Potency was inconclusive: 15.8 µM [inhibitor, partial curve, poor fit].
With `CN1CCN(c2ccc(NC(=O)c3ccccc3F)nc2)CC1` the Potency was inconclusive: 25.1 µM [inhibitor, partial curve, poor fit].
For `O=c1[nH]c2ccccc2n1C1CCN(c2nccc(-c3cccnc3)n2)CC1`, the Potency was inconclusive: 22.4 µM [inhibitor, partial curve, poor fit].
`Cc1ccc(C2Nc3ccccc3C(=O)N2CCN2CCNC2=O)cc1` (configuration not stated) was tested, and the Potency was inconclusive: 25.1 µM [inhibitor, partial curve, poor fit].
For `CN(C)c1ccc(S(=O)(=O)N(C)C)cc1NC(=O)Cc1cccc2ccccc12`, the Potency was inconclusive: 39.8 µM [inhibitor, partial curve, poor fit].
With `O=C(c1cccs1)N1CCC(N2CC3CC(C2)[C@H]2CCCC(=O)N2C3)CC1` (some centres not stated) the Potency was inconclusive: 25.1 µM [inhibitor, partial curve, poor fit].
With `COc1ccc(C(=O)c2c(N)sc3c2CCN(C(=O)OC(C)(C)C)C3)cc1` the Potency was inconclusive: 39.8 µM [inhibitor, single point].
In the case of `O=C(Nc1ccc2c(c1)OCCO2)C1(CCO)CCN(c2ncccn2)C1` (configuration not stated), the Potency is reported as inconclusive: 17.8 µM [inhibitor, partial curve].
In the case of `COCc1nc(-c2ccc(OC3CN(C(=O)NC(C)C)C3)cc2)no1`, the Potency is reported as “inactive”.
`COC(=O)c1c(-c2cccs2)csc1NC(=O)c1ccc(OC)c(OC)c1` was tested, and the Potency was inconclusive: 3.55 µM [inhibitor, partial curve, poor fit].
`CCC1CN(C(=O)N2CCC(C(=O)NCc3cccc(C)c3)CC2)c2cc(C)ccc2O1` (configuration not stated) was tested, and the Potency was “inactive”.
For `CN(C)S(=O)(=O)c1cccc(C(=O)OCc2nc3ccccc3o2)c1`, the Potency was “inactive”.
`CCNC(=O)C1CCN(c2nnc(C)c3c(C)n(-c4ccc(OC)cc4)nc23)CC1` was tested, and the Potency was inconclusive: 22.4 µM [inhibitor, partial curve, poor fit].
In the case of `O=C(Nc1ccccc1OC(F)F)C1=NN(C2CCS(=O)(=O)C2)C(=O)CC1` (configuration not stated), the Potency is reported as “inactive”.
`COc1ccccc1CNC(=O)C1CCN(S(=O)(=O)c2ccc3c(ccn3C)c2)CC1` was tested, and the Potency was inconclusive: 25.1 µM [inhibitor, single point].
For `Oc1cccc(Nc2cnc3ccc(-c4ccc(F)cc4)nn23)c1`, the Potency was “inactive”.
For `COc1ccccc1-c1nc(C(=O)NCCc2ccc(Cl)cc2)n2ccncc12`, the Potency was active: 79.4 µM.
With `O=C(C1CC(=O)N(C2CC2)C1)N1CCCN(Cc2ccccn2)CC1` (configuration not stated) the Potency was inconclusive: 10 µM [inhibitor, partial curve, poor fit].
For `COc1ccc(N2CCN(C(=O)c3noc(-c4ccc(C)cc4)n3)CC2)cc1`, the Potency was “inactive”.
`CCCNC(=O)COc1nc2ccccc2nc1N1CCOCC1` was tested, and the Potency was “inactive”.
With `COc1cccc(-n2c(=O)c3sc4ccccc4c3n(CC(=O)Nc3ccc(F)cc3F)c2=O)c1` the Potency was inconclusive: 28.2 µM [inhibitor, partial curve, poor fit].
`O=C(N[C@@H]1CCN(C(=O)c2ccc3cc[nH]c3c2)C[C@H]1O)c1cnccn1` was tested, and the Potency was inconclusive: 17.8 µM [inhibitor, partial curve, poor fit].
In the case of `CC(C)CN(CCCNC(=O)CN1C(=O)COc2ccc(S(=O)(=O)N3CCCCCC3)cc21)CC(C)C`, the Potency is reported as “inactive”.
With `COc1cc(NC(=O)CSc2nc(C)c(C(=O)Nc3ccccc3)c(-c3ccc(OC)c(OC)c3)c2C#N)c(OC)cc1Cl` the Potency was inconclusive: 28.2 µM [inhibitor, partial curve, poor fit].
`O=c1[nH]c(=O)n(CCc2ccccc2)c2c1C(C(F)(F)F)(C(F)(F)F)N=C(c1ccco1)N2` was tested, and the Potency was “inactive”.
With `O=C(NCc1ccc(Cl)nc1)c1cccn2nccc12` the Potency was active: 35.5 µM.
For `Cn1c(NCc2ccccc2Cl)nc2c1c(=O)n(Cc1ccc(Cl)cc1)c(=O)n2C`, the Potency was “inactive”.
In the case of `O=C(Nc1ccc(Br)cc1F)Nc1c(N2CCCC2)c2ccccc2oc1=O`, the Potency is reported as “inactive”.
`COc1cccc(NC(=O)CN2CCN(c3nc(-c4ccco4)c4c(c3C#N)CCC4)CC2)c1` was tested, and the Potency was “inactive”.
`COc1ccc(C)cc1NC(=O)c1ccc2c(c1)N(C)C1CCCN1C2=O` (configuration not stated) was tested, and the Potency was inconclusive: 22.4 µM [inhibitor, single point].
In the case of `CC(C)(C)C(=O)NCCSCc1ccsc1`, the Potency is reported as “inactive”.
With `Nc1nnnn1NCc1ccc(-c2cccc(Cl)c2)o1` the Potency was inconclusive: 39.8 µM [inhibitor, single point].
For `Cc1noc(CN2CCc3nc(-c4ccc(F)cc4F)[nH]c3C2)n1`, the Potency was active: 31.6 µM.
With `Cc1nc(-c2ccccc2OC2CN(S(=O)(=O)c3c(C)nn(C)c3C)C2)no1` the Potency was inconclusive: 28.2 µM [inhibitor, partial curve, poor fit].
`O=C(NCc1c[nH]c2ncccc12)C1CCCC1` was tested, and the Potency was “inactive”.
For `CN(C)c1cccc(C(=O)NNC(=O)c2ccc(Cl)cc2)c1`, the Potency was “inactive”.
`COc1ccc2nc([C@H]3CCN(Cc4ccccc4)C3)[nH]c2c1` was tested, and the Potency was inconclusive: 28.2 µM [inhibitor, single point].
For `O=C(c1ccoc1)N1CCC2(CC1)N=C(c1cccc(Br)c1)NO2`, the Potency was inconclusive: 28.2 µM [inhibitor, partial curve, poor fit].
With `CCOC(=O)c1c(C)oc2nc(C)nc(NCc3ccc(C)cc3)c12` the Potency was inconclusive: 15.8 µM [inhibitor, partial curve, poor fit].
With `COc1ccc(-c2nc(NCc3cccc(OC)c3)c3ccccc3n2)cc1` the Potency was inconclusive: 31.6 µM [inhibitor, partial curve, poor fit].
In the case of `CCOCCCn1c(=N)c(C(=O)NCc2ccco2)cc2c(=O)n3ccccc3nc21`, the Potency is reported as inconclusive: 4.47 µM [inhibitor, partial curve, poor fit].
For `O=C(NCc1ccccn1)c1cccc(OC2CCN(c3cnccn3)CC2)c1`, the Potency was inconclusive: 22.4 µM [inhibitor, partial curve, poor fit].
In the case of `COc1ccc(-c2nc3cc(NC(=O)c4ccccc4OC)ccc3o2)cc1`, the Potency is reported as inconclusive: 14.1 µM [inhibitor, partial curve, poor fit].
In the case of `COCCCNc1nc2c(-c3ccccc3)nnn2c2ccccc12`, the Potency is reported as inconclusive: 5.01 µM [inhibitor, partial curve, poor fit].
With `CC(C)N1C[C@H](O)C[C@H]1c1nnc2n1CCN(C(=O)CCCc1c[nH]c3ccccc13)C2` the Potency was inconclusive: 28.2 µM [inhibitor, single point].
For `O=C(CSc1nncn2c1cc1sccc12)Nc1ccccc1C(F)(F)F`, the Potency was inconclusive: 11.2 µM [inhibitor, partial curve, poor fit].
For `Cc1cc(C)cc(NC(=O)N2CCCC(Cn3c(C)nc4cccnc43)C2)c1` (configuration not stated), the Potency was inconclusive: 25.1 µM [inhibitor, partial curve, poor fit].
With `COC(=O)c1cccc(COC(=O)C2=NN(C3CCS(=O)(=O)C3)C(=O)CC2)c1` (configuration not stated) the Potency was “inactive”.
In the case of `Cc1nc(-c2ccc(S(=O)(=O)Nc3ccc(F)cc3F)cc2)co1`, the Potency is reported as “inactive”.
`Nc1c(C(=O)Nc2cccc(Cl)c2)sc2nc3c(cc12)CN(Cc1ccccc1)CC3` was tested, and the Potency was inconclusive: 15.8 µM [inhibitor, partial curve, poor fit].
For `COc1ccccc1CN1CCCC(c2[nH]ccc2C(N)=O)C1` (configuration not stated), the Potency was “inactive”.
For `Oc1ccccc1C=NCCOCCN=Cc1ccccc1O`, the Potency was “inactive”.
`CCOc1cc(CN(CC(=O)NC2CCCCC2)C2CC2)ccc1OC(F)F` was tested, and the Potency was “inactive”.
`O=C(COC(=O)c1ccc(Cl)c(S(=O)(=O)N2CCCCCC2)c1)Nc1cc(F)ccc1F` was tested, and the Potency was inconclusive: 39.8 µM [inhibitor, single point].
With `COC(=O)c1cc(NC(=O)c2ccccc2OC(F)F)c(F)cc1F` the Potency was “inactive”.
Further: nearly all actives have a fitted effect of over 70% in size.
Potency means the concentration at half of the fitted maximal effect; tags describe the fitted curve by direction and shape.
